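Where inhibition never reached the appropriate level, the endpoint shown equals the highest concentration tested. Otherwise, values were interpolated linearly from a five-concentration, 48-hour dose response in 96-well plates. The concentration for 50% growth inhibition is given as GI50.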 For part of its entries the source gives two or more results. This is not the full list of results. There may be further records. For some of these results: The tests behind the records often covered other concentration ranges, which the source does not state; some values may only mark the edge of a range. For some of these results: The records of an entry are repeated measurements across runs, samples, wells, individuals or studies. Marks in square brackets tell the records apart. A, B and so on number the origins entry by entry.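 The concentration for full growth arrest is given as TGI.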

From PubChem BioAssay (NCI) come the findings set out here.

Test systems include SK-MEL-2 melanoma; SF-268 CNS; NCI/ADR-RES ovarian; CCRF-CEM leukemia; OVCAR-4 ovarian; MDA-MB-435; K-562 leukemia; SF-539 CNS; UO-31 renal; LOX IMVI melanoma; OVCAR-5 ovarian; COLO 205 colon; SNB-75 CNS; OVCAR-3 ovarian; A498 renal; OVCAR-8 ovarian; U251 CNS; NCI-H23 lung; PC-3 prostate; HT29 colon; 786-0 renal; RXF 393 renal; HCT-15 colon; SK-MEL-5 melanoma; MOLT-4 leukemia; MDA-MB-231 breast; HOP-92 NSCLC; IGROV1 ovarian; SF-295 CNS; SW-620 colon; TK-10 renal; HS 578T breast; T-47D breast; HCT-116 colon; KM12 colon; HCC-2998 colon; MDA-N; NCI-H460 lung; SK-OV-3 ovarian; SN12C renal; BT-549 breast; A549 NSCLC; HOP-62 NSCLC; CAKI-1 renal; SK-MEL-28 melanoma; M14 melanoma; HOP-18 NSCLC.

Holding throughout (experiment): DTP human tumour cell line panel, 48 h

Regarding `CC(C)C[C@H](NC(=O)[C@@H](N)Cc1cccc2ccccc12)B(O)O`, the TGI in the experiment with SK-MEL-2 melanoma was 3.16 µM and 165 nM; with SF-268 CNS, 50 µM and 127 nM; in the experiment on NCI/ADR-RES ovarian it was 50 µM and 414 nM; with CCRF-CEM leukemia, 50 µM and 13.1 nM; with OVCAR-4 ovarian it was 50 µM and 228 nM; with MDA-MB-435, 245 nM and 19.3 nM. Also, the TGI with K-562 leukemia was 50 µM and 487 nM; with SF-539 CNS, 1.11 µM and 33.8 nM; in the experiment with UO-31 renal, 2.06 µM and 149 nM; with LOX IMVI melanoma it was 555 nM and 44.4 nM; in the experiment with OVCAR-5 ovarian, 6.71 µM and 128 nM; with COLO 205 colon it was 50 µM and 264 nM. The total growth inhibition concentration (TGI) with SNB-75 CNS is 28.8 µM and 74.3 nM; in the experiment on OVCAR-3 ovarian, 754 nM and 38.9 nM; with A498 renal, 977 nM and 63.1 nM; with OVCAR-8 ovarian it was 50 µM and 220 nM; with U251 CNS, 5.06 µM and 252 nM; with NCI-H23 lung it was 987 nM and 97.3 nM. Also, the concentration for total growth inhibition (TGI) in the experiment with PC-3 prostate was 5.76 µM and 299 nM; with HT29 colon it was 50 µM and 48.4 nM; with 786-0 renal, 6.21 µM and 525 nM; with RXF 393 renal, 476 nM and < 28.3 nM; in the experiment on HCT-15 colon, 3.69 µM and 119 nM; in the experiment on SK-MEL-5 melanoma, 840 nM and 49.4 nM. Also, the TGI is 50 µM and 49.2 nM with MOLT-4 leukemia; 12.3 µM and 123 nM in the experiment on MDA-MB-231 breast; 1.74 µM and 128 nM with HOP-92 NSCLC; 5.23 µM and 263 nM in the experiment with IGROV1 ovarian; 1.81 µM and < 43.9 nM in the experiment with SF-295 CNS; 1.26 µM and 28.7 nM with SW-620 colon. The TGI in the experiment with TK-10 renal was 16.1 µM and 112 nM; with HS 578T breast, 50 µM and 78.3 nM; in the experiment on T-47D breast, 1.79 µM and 54.8 nM; in the experiment on HCT-116 colon, 459 nM and 36.2 nM; in the experiment on KM12 colon, 2.21 µM and 83.4 nM; in the experiment on HCC-2998 colon, 825 nM and 45.5 nM. Besides, the concentration for total growth inhibition (TGI) is 50 µM and 10.4 nM in the experiment on MDA-N; 4.53 µM and 233 nM in the experiment with NCI-H460 lung; 50 µM and 1.36 µM with SK-OV-3 ovarian; 16.8 µM and 149 nM with SN12C renal; 10.5 µM and 67.6 nM in the experiment on BT-549 breast; 50 µM and 1.86 µM in the experiment on A549 NSCLC. Also, the total growth inhibition concentration (TGI) with HOP-62 NSCLC is 3.78 µM and 201 nM; in the experiment on CAKI-1 renal, 2.57 µM and 79.1 nM; in the experiment on SK-MEL-28 melanoma, 32.4 µM and 23.6 nM; with M14 melanoma, 4.73 µM and 224 nM. For the same molecule, the GI50 is 722 nM and 27.1 nM with K-562 leukemia; 319 nM and 28.3 nM with HS 578T breast.
For `CCOC(=O)c1ccc(N[C@@H]2c3cc4c(cc3C(c3cc(OC)c(O)c(OC)c3)[C@H]3C(=O)OCC32)OCO4)cc1` (stereo not given in full), the TGI in the experiment on HOP-92 NSCLC is 820 nM and 8.71 µM.
`COc1ccc(-c2cc(-c3ccco3)c(C#N)c(=O)n2C2OC(COC(C)=O)C(OC(C)=O)C(OC(C)=O)C2OC(C)=O)cc1` (stereo not given): the GI50 is 7.37 µM [sample A, 1 test] and > 100 µM [sample B, 1 test] in the experiment on CCRF-CEM leukemia; > 100 µM [sample A, 1 test] and 6.5 µM [sample B, 1 test] in the experiment with HOP-18 NSCLC; > 100 µM [sample A, 1 test] and 8.65 µM [sample B, 1 test] in the experiment on HCT-116 colon.
As for `O=C(Nc1ccc(Br)cc1)c1cc(Br)ccc1O`, the TGI with CCRF-CEM leukemia is 4.94 µM [sample A, mean of 2 tests] and > 100 µM [sample B, 1 test]; in the experiment on K-562 leukemia it was 2.74 µM [sample A, mean of 2 tests] and > 100 µM [sample B, mean of 2 tests]; in the experiment on SK-OV-3 ovarian, > 68.2 µM [sample A, mean of 2 tests] and 4.86 µM [sample B, mean of 2 tests].
